Laboratory results published in article PMC6919601, “Identification of Plasmodium dipeptidyl aminopeptidase allosteric inhibitors by high throughput screening” (PLoS ONE, 2019).
Several values for one entry are separate records, joined by “and”; a condition that tells them apart may be missing. Equal entries are not always repeated. About 230 (0.21%) of roughly 110,000 compounds showed an effect of 50% or more. The list shows a part of the results.

The compounds below were run against DPAP1 (Plasmodium falciparum, UniProt Q8IIJ9) (assay: primary screen, percent inhibition; read by cleavage of a fluorogenic dipeptide substrate; higher = more effect of the substance).
Chain of DPAP1 (Q8IIJ9 whole entry, looked up): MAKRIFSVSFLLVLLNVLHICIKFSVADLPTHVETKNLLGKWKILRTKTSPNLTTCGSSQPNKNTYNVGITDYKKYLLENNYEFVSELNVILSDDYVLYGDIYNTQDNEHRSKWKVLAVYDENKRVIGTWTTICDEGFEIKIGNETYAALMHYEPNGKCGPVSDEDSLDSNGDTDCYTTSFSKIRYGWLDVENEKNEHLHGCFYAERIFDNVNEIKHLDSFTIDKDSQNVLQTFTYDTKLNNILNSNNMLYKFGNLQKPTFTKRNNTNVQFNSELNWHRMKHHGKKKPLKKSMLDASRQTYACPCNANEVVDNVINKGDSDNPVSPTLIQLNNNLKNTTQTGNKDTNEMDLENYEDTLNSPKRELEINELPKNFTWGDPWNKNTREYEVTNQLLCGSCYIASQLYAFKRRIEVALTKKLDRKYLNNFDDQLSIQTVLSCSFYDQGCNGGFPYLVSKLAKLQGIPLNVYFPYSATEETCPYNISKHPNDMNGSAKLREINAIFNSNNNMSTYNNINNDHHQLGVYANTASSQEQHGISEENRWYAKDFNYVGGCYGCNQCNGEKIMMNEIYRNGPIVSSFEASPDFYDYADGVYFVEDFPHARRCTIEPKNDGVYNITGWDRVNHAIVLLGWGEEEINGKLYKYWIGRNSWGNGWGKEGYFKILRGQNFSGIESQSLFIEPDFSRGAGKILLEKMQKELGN
Parameters: species or system P. falciparum D10 trophozoite lysates; single well
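Also: 30 min substrate incubation versus DMSO and 10 µM JCP410 controls.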

Row | Structure (SMILES) | % Inhibition @ 10 uM
1 | Cc1c(C(=O)NC(C)(C)C)sc2nc(-c3ccccc3)cn12 | -7.53%
2 | CCN(CC)CCNC(=O)COc1ccc(Cl)cc1Cl | 4.35%
3 | Nc1ccc(S(=O)(=O)NCCc2ccccc2)cc1 | -7.96%
4 | N#Cc1c(-n2cccc2C#N)sc2c1CCCC2 | -5.11%
5 | CC(=O)/C(=C1\NC(C)(C)Cc2cc(C)c(C)cc21)c1ccccc1 | 0.587%
6 | CC1(C)CC(NCCC#N)CC(C)(C)N1 | 2.78%
7 | Cc1ccccc1OCC(=O)N1CCN(C(=O)COc2ccccc2C)CC1 | 6.79%
8 | COC(=O)c1ccc(OP2(=O)COc3ccccc3OC2)cc1 | 0.413%
9 | Cc1c(NC(=O)c2c(Cl)cccc2Cl)c(=O)n(-c2ccccc2)n1C | 3.44%
10 | CC(C)NC(=O)c1ccc(CS(=O)Cc2ccc(Cl)cc2)o1 (centres unmarked) | 2.03%
11 | CCOC(=O)C1=C(C)N=C(SC)NC1c1ccc(N(C)C)cc1 (centres unmarked) | 0.219%
12 | Cc1cc2c(cc3c(=O)n(CC(=O)N4CCCCC4)ncn32)s1 | 0.0198%
13 | CCSC1=C(C#N)C(c2ccc(Cl)cc2)CC(=O)N1 (centres unmarked) | -11.9%
14 | CC1(C)Cc2ccccc2C2CC(O)C(=O)N21 (centres unmarked) | -0.13%
15 | CCn1c2ccccc2c2nnc(N3CCc4ccccc4C3)nc21 | 15.1%
16 | O=C(O)c1n[nH]c(N2C(=O)c3ccccc3C2=O)n1 | -4.15%
17 | COCCCNC(=O)C1Sc2nnc(-c3ccccc3)n2NC1c1ccc(OC)c(Cl)c1 (centres unmarked) | 0.0289%
18 | Cc1ccc2c(c1Br)C1(C(=O)N2)C(C#N)=C(N)OC2=C1C(=O)CCC2 (centres unmarked) | 2.4%
19 | O=S(=O)(NCc1ccccc1Cl)c1ccc(-n2cccn2)cc1 | 1.77%
20 | Cc1ccc(S(=O)(=O)NCC2CCC(C(=O)N(C)C3CCCCC3)CC2)cc1 (centres unmarked) | 5.47%
21 | Cc1ccc(OCC(O)CN2CCN(c3ccc(C)cc3)CC2)cc1 (centres unmarked) | 0.189%
22 | O=C1NC(=O)/C(=C\c2c(OCc3ccc(Br)cc3)ccc3ccccc23)N1 | 5.18%
23 | COc1cc(-c2noc(CN3CCOCC3)n2)cc(OC)c1OC | -2.16%
24 | O=C(Cn1ncc2c3ccccc3n(Cc3ccccc3)c2c1=O)N1CCN(C2CCCCC2)CC1 | 6.46%
25 | COc1ccc(C2C(C(=O)NCCCN3CCOCC3)c3cc(OC)c(OC)cc3C(=O)N2C)cc1 (centres unmarked) | 3.61%
26 | O=C(Cc1nnc(-c2ccc(Br)cc2)o1)NC1CCN(Cc2ccccc2)CC1 | 2.28%

Row | Structure (SMILES) | % Inhibition @ 10 uM
27 | CCc1c(C)sc(NC(=O)c2c(-c3c(F)cccc3Cl)noc2C)c1C(N)=O | 5.42%
28 | C/C(=C1/SC(N2CC(C)OC(C)C2)=NC1=O)c1ccccc1 (centres unmarked) | 0.147%
29 | CC1CCc2nn(CC(=O)N3CCN(C(=O)c4ccco4)CC3)cc2C1 (centres unmarked) | 4.95%
30 | O=S(=O)(Nc1c(O)nc2ccc(Cl)cc2c1-c1ccccc1)c1ccccc1 | 14%
31 | O=C(Cn1ncc2c(Cl)cccc21)NCCN1CCOCC1 | -1.11%
32 | CC(C(=O)Nc1sc2c(c1C(=O)NCc1ccco1)CCCC2)N1C(=O)c2ccccc2C1=O (centres unmarked) | 2.67%
33 | N#C/C(=C\c1ccc2c(c1)OCO2)c1nc2ccccc2[nH]1 | 1.29%
34 | COc1ccc(C(=O)Nc2cc(C)cc(C)c2)cc1 | 2.22%
35 | Cc1ccc(NC(=O)C2CCN(C(=O)c3ccc(Br)cc3)CC2)c(C)c1 | -2.58%
36 | CSc1cccc(NC(=O)C2C3C=CC(O3)C2C(=O)O)c1 (centres unmarked) | -8.38%
37 | CCc1cccc2c(C#N)cn(CC(=O)NCc3ccccc3)c12 | -0.105%
38 | O=C(CCCN1C(=O)CSc2ncccc21)N1CCOCC1 | -0.637%
39 | CCCCCn1c(COC)nc2ccccc21 | -7.83%
40 | CC1CCC(NCCCN2CCOCC2)CC1 (centres unmarked) | -5.59%
41 | COCCNC(=O)c1nn(C)c(=O)c2ccccc12 | 3.93%
42 | CCCCNC(=O)c1noc2c1CCc1ccccc1-2 | -3.12%
43 | Cc1ccsc1CN1CCCC1CO (centres unmarked) | -5.31%
44 | Cc1ccc2ncc(C(=O)c3ccccc3)c(N3CCOCC3)c2c1 | 0.54%
45 | NC(=O)c1sc2ncc([N+](=O)[O-])cc2c1N | 5%
46 | O=C(O)c1ccc(CNC(=O)c2ccc(C(F)(F)F)cc2)cc1 | -1.24%
47 | COc1cc(CN(C)CCN(C)C)cc(OC)c1 | -1.05%
48 | Cn1cnc2c(=O)oc3ccc(S(=O)(=O)N4CCN(Cc5ccccc5)CC4)cc3c21 | -0.591%
49 | Cc1ccc(-c2onc(C)c2C)cc1S(=O)(=O)N1CCCCC1C (centres unmarked) | -3.18%
50 | Cc1ccc(C2CC(=O)N=C(NC(=O)CCCOc3ccccc3)N2)cc1 (centres unmarked) | 6.29%
51 | COc1cc(C2=NOC(C(=O)NCC(C)C)C2)cc(OC)c1OC (centres unmarked) | -3.94%
52 | CN(CCNC(=O)Cn1ncc2c1-c1ccccc1OC2)C1CCCCC1 | 0.775%

Row | Structure (SMILES) | % Inhibition @ 10 uM
53 | Cc1ccc(C2(c3ccc(C)cc3)CC2C(=O)NCc2ccco2)cc1 (centres unmarked) | -2.03%
54 | CC(C)(C)c1ccc(OCc2ccc(C(=O)O)cc2)cc1 | -3%
55 | O=C(O)c1ccc2c(c1)C1C=CCC1C(c1cccc(Cl)c1Cl)N2 (centres unmarked) | 0.132%
56 | O=C(NCc1ccccn1)c1ccc(CSc2nc3ccncc3n2Cc2ccccc2F)cc1 | 3.3%
57 | N=C1S/C(=C\c2ccco2)C(=O)N1c1nccs1 | -3.74%
58 | CCc1nc(N)c(C#N)c(-c2ccc(Br)s2)c1C | -3.13%
59 | Cc1cccc(OCc2nnc(SCC(=O)Nc3nc(-c4ccccc4)c(C)s3)o2)c1 | 2.35%
60 | Cc1nc(CSc2nnc(-c3ccccc3)n2-c2ccccc2)cs1 | 0.9%
61 | Cc1cc(C)cc(NC(=O)c2cccc(N3C(=O)C4C5C=CC(C5)C4C3=O)c2)c1 (centres unmarked) | 1.1%
62 | COc1cccc(C(=O)NC(=O)Nc2nc(-c3ccccc3)cc(C(F)(F)F)n2)c1 | -2.63%
63 | COc1ccc(NC(=O)CN(c2ccc(Cl)cc2C)S(C)(=O)=O)c(OC)c1 | -3.18%
64 | CNc1ccccc1C(=O)N[C@@H](CC(C)C)C(=O)NCC#N | -3.04%
65 | CCOc1ccc(CNCCc2ccc(Cl)cc2)cc1 | 4.55%
66 | Cc1ccc(C(=O)Nc2ccc(C)c(O)c2)cc1 | -0.872%
67 | COC(=O)c1c(O)[n+]([O-])c2cc(Cl)c(Cl)cc2[n+]1[O-] | -3.41%
68 | CSC1=C(C(N)=O)C(c2ccccc2)C(C#N)C(=O)N1 (centres unmarked) | -3.04%
69 | O=C(C1CCCO1)N1CCN(c2ccc(F)cc2)CC1 (centres unmarked) | 2.03%
70 | Cc1cccc(C(=O)Nc2ccc(-c3cn4cccnc4n3)cc2)c1 | -11.4%
71 | CCOC(=O)/C(C#N)=C/c1c(Oc2ccc(C(C)(C)C)cc2)nc2c(C)cccn2c1=O | -1.43%
72 | CCCNC(=O)CSCc1nc(-c2ccc(OCC)cc2)oc1C | 3.93%
73 | CC(C)(C)/C(O)=C/C1=NC2CCCCC2N=C1/C=C(\O)C(C)(C)C (centres unmarked) | -1.84%
74 | C=Cc1ccc(Cn2c(C(=O)O)c(CNCc3ccc(Cl)cc3)c3ccc(C)cc32)cc1 | -5.04%
75 | CCCNC(=O)c1csc2c1CCCCC2 | 1.93%
76 | CC(=O)c1ccc(NCN2C(=O)C3CC=C(Cl)CC3C2=O)cc1 (centres unmarked) | 2.45%
77 | COc1ccc(OCc2nc(C#N)c(NCCc3ccccc3)o2)cc1 | -1.98%
78 | Cc1ccc(S(=O)(=O)N(CC(=O)NCC2CCCO2)c2cc(Cl)ccc2C)cc1 (centres unmarked) | -3%

Row | Structure (SMILES) | % Inhibition @ 10 uM
79 | CCOc1cc(C2CC(=O)NC(SCc3ccccc3)=C2C#N)ccc1O (centres unmarked) | -3.46%
80 | COc1cc(C2Nc3ccccc3N=C3CC(C)(C)CC(O)=C32)cc(OC)c1OC (centres unmarked) | -0.968%
81 | O=C(NCCCc1nc2ccccc2n1CC1CC1(Cl)Cl)c1ccco1 (centres unmarked) | -2.99%
82 | Cc1nc2nc(SCc3cc(=O)n4c(C)cccc4n3)nn2c(C)c1Cc1ccc(F)cc1Cl | -0.519%
83 | Cc1ccc(-c2c(NCCN3CCCC3)c(=O)c2=O)cc1 | 1.69%
84 | N#CCNC(=O)[C@H](CSCc1ccc([N+](=O)[O-])cc1)NC(=O)c1ccccc1 | -6.98%
85 | NC(=O)Nc1ccccc1C(=O)Nc1ccc(O)cc1 | -1.51%
86 | CN(C)CCC(=O)C12CC3CC(CC(C3)C1)C2 | -2.7% and -3.48%
87 | O=C(NCCCN1CCOCC1)c1cc2c(s1)-c1ccc(Cl)cc1S(=O)(=O)C2 | 4.14%
88 | COc1ccc(Cl)cc1S(=O)(=O)N1CCCC(C(=O)O)C1 (centres unmarked) | -1.31%
89 | COc1ccc(CCNC(=O)c2nn(C)c3c2CSc2ccccc2-3)c(OC)c1 | 1.47%
90 | Cc1ccc(S(=O)(=O)N(OCc2ccccc2)C(C)C(=O)O)cc1 (centres unmarked) | -2.83%
91 | CC(=O)Nc1cc(-c2ccc(C)cc2)nn1Cc1cccc(Cl)c1 | 1.76%
92 | CC(C)C(NC(=O)CN(c1cccc(F)c1)S(C)(=O)=O)C(C)C | 1.15%
93 | Cc1ccc2c(c1)cc1c(=O)n(CC(=O)O)nc(C)n12 | 1.72%
94 | CCOc1ccc(C(=O)Nc2cc(OC)ccc2OC)cc1 | 2.54%
95 | CCCN1CCN(C(=O)C2CCN(C(=O)c3ccc(-n4ccc5ccccc54)s3)CC2)CC1 | -3.95%
96 | O=C(NC1CCCCC1)c1ccc(CNc2nc(S)nc3ccccc23)cc1 | -0.628%
97 | CN1CCN(C(=O)CN(c2cc(C(F)(F)F)ccc2Cl)S(C)(=O)=O)CC1 | -1.63%
98 | O=C(NC1CCCC1)N1CC=C(c2c[nH]c3ccccc23)CC1 | 1.98%
99 | CC1CCCC(NC(=O)Cn2ncc3c(Cl)cccc32)C1C (centres unmarked) | 5.39%
100 | O=C1C2C(c3ccccc3)OC3(C(=O)c4ccccc4C3=O)C2C(=O)N1Cc1ccc(Cl)cc1 (centres unmarked) | -3.37%
101 | CCn1c(Oc2ccccc2OC)nc2c1c(=O)n(C)c(=O)n2C | -1.96%
